Hit rate of the full screen: of about 45,000 compounds, about 200 (0.44%) were called active. Inconclusive results (about 7%) are left out. Calls come from the whole dose curve; as a rule, active = well fitted activation curve with a large enough effect; inconclusive = small, poorly fitted or top-dose-only effect; inactive = no such curve, though single readings can be large or run the other way. This is one part of the list.
assay: qHTS of TDP-43 Inhibitors: NCGC Sytravon Library Screen; conditions: yeast TDP-43 toxicity rescue, BacTiter-Glo growth, 24 h; series mostly up to 46.1 µM; growth rescue (activation): at the top concentration; note: 0% is about no effect; nearly all actives have a fitted effect of over 55% in size
In short: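 TDP-43-expressing yeast, pregrown in raffinose, seeded at OD600 0.02 in galactose medium with compound for 24 hr at 30 deg C. Growth read by BacTiter-Glo luminescence, so rescue of toxicity appears as activation.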

Structure (SMILES) | growth rescue (activation)
CCCc1nnc(NC(=O)CCC(=O)N2CCN(S(=O)(=O)c3ccc(C)cc3)CC2)s1 | inactive: 6.7%
CC(NC(=O)CCl)c1ccccc1Br (stereo not given) | inactive: -6.68%
CC(C)C(=O)NC(=S)Nc1ccccc1N1CCN(C(=O)c2ccc(Cl)cc2)CC1 | inactive: -1.24%
N#C/C(=C\c1ccccc1O)C(=O)Nc1cccnc1 | inactive: 27.6%
COCCN(CCOC)C(=O)CN1C(=O)NC2(CCCc3sccc32)C1=O (stereo not given) | inactive: 5.82%
COCc1nnc(NC(=O)c2ccc(OC)cc2OC)s1 | inactive: 7.16%
Clc1ccc(OCc2cn3cccnc3n2)c2ncccc12 | inactive: 23.8%
COc1cc(/C=N/NC(=O)CN2CCOCC2)ccc1OCc1ccccc1 | inactive: 24.9%
COc1cc(NC(=S)NCCCN2CCOCC2)cc(OC)c1OC | inactive: 2.84%
CCCN1C(=O)C(O)(CC(=O)c2ccc(C(C)C)cc2)c2ccccc21 (stereo not given) | inactive: 8.6%
Cn1c(NCc2ccccc2F)nc2cc(-c3ccccc3)sc2c1=O | inactive: 21.6%
CC1(C)CC(=O)c2sc(NC(=O)C(C)(C)C)nc2C1 | inactive: 0.855%
O=[N+]([O-])c1ccc(OCC(O)CN(C2CCCCC2)C2CCCCC2)cc1 (stereo not given) | inactive: 10.9%
CC(=O)Nc1ccc(NC(=O)COc2ccc(S(=O)(=O)N3CCCC3)cc2C)cc1 | inactive: -9.43%
CN(Cc1cn[nH]c1-c1ccc2c(c1)OCO2)C1CCOCC1 | inactive: -20%
Cn1c(N)c(C(=O)COC(=O)COc2ccc(Cl)cc2Cl)c(=O)n(C)c1=O | inactive: 8.55%
C(=N\N(c1ccccc1)c1ccccc1)/c1ccc(N2CCOCC2)s1 | inactive: 22.7%
O=C(NCc1ccc(F)cc1)c1cc(-c2ccncc2)nc2ccccc12 | inactive: 2.52%
COc1ccc(N(C(=O)c2ccc(Cl)cc2)C2=CC3CCC(C2)N3C)cc1 (stereo not given) | inactive: 2.23%
CC(=O)C1C(c2ccc(Br)cc2)c2c(noc2C)CC1(C)O (stereo not given) | inactive: 20.4%
CC(C)OC(=O)CSc1nnc(-c2ccc([N+](=O)[O-])cc2)o1 | inactive: 13.5%
CN(CC(=O)NCCc1ccc(S(N)(=O)=O)cc1)S(=O)(=O)/C=C/c1ccccc1 | inactive: -3.53%
COc1ccccc1NC(=O)/C=C1\SCC(=O)N1C | inactive: 17.3%
COc1ccc(Cl)cc1NC(=O)c1cc(-c2cc(C)ccc2O)n[nH]1 | inactive: 25.6%
CCN(CC)C(=O)CSc1nc(OC)cc(=O)[nH]1 | inactive: 11.9%
O=C(O)C1C2C=CC(C2)C1C(=O)N1CCN(CCO)CC1 (stereo not given) | inactive: 15.6%
N#Cc1ccc(OCC(=O)Nc2ccncc2)cc1 | inactive: -56.9%
COC(=O)C1=C(C)NC(=O)/C1=C/c1ccc(CNS(=O)(=O)c2ccc(C)cc2)o1 | inactive: -3.58%
CCN(CC)S(=O)(=O)c1ccc(N2CCCC2)c(NC(=O)c2c(-c3ccccc3)noc2C)c1 | inactive: 13.8%
O=C1NC2(CCCC2)C(=O)N1Cc1cc(=O)n2ccsc2n1 | inactive: -8.99%

From PubChem BioAssay AID1347073 (National Center for Advancing Translational Sciences (NCATS), 2019)
